Data from paper PMC12136788.
The other results are listed elsewhere or left out.

T1: UNK ZnF1-3 (human, UniProt Q9C0B0 31-174)
T1 sequence: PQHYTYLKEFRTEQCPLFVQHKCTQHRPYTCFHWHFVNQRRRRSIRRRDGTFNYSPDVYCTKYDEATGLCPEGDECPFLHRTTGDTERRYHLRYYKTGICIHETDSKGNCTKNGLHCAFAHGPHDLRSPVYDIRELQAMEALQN

B1: chr3:10015032:10015033:+_ENSMUSG00000027533_ENSMUST00000029046|mus_mus|mus_mus_mus_hu_True|18_38 (ssRNA)
RNA: GGGAGUUCUACAGUCCGACGAUCGUUUUUACCAUCACAAGUGAUGAUACAAUCUGGCUUGGCCAUUGCGCCCAUUUUUCGCAAAGCUAUUCCCACUCCUAGCUCUUUCAUGUAUUCCUCAAAGCCGUUGCUGUCCACCAGGCGCAACAGAGGAUUGAGCAUCA
B2: chr14:76904430:76904431:+_ENSMUSG00000022010_ENSMUST00000022587|mus_mus|mus_mus_mus_hu_True|1_8 (ssRNA)
RNA: GGGAGUUCUACAGUCCGACGAUCUGCAGCCAAAAACACCCUCGUGGAAAAAAAGAGGGAACACCAGCAGCCUUGUAUAAGCUAGAUAAAAUCUUCUGGCUUUCCGCAGCCCAGGGAGAAACAGAAAUGGUGCUGGCUCGAGUGCAACAGAGGAUUGAGCAUCA
B3: chr10:121586235:121586236:+_ENSG00000198825_ENST00000369080|hu_mus|FALSE|FALSE (ssRNA)
RNA: GGGAGUUCUACAGUCCGACGAUCAGGUUGCCGAUGUUCACAUUGGAUUUGGUCUGCUUUACUUUUUGAUUUAGAGAUGAAAAUUUGCUCAUUAAAAAGCUUUUCCCCUGGGCAAGAGAGCCUUGGUUUUGAGAUCUGAUACCACAACAGAGGAUUGAGCAUCA
B4: chr10:7368923:7368924:-_ENSMUSG00000019795_ENSMUST00000163085|mus_hu|FALSE|FALSE (ssRNA)
RNA: GGGAGUUCUACAGUCCGACGAUCCAUGUAUGGGUUACAUUUUGCAUAGUGGGAGCGGUCUGUAGCCAGCAUCACUUCAAAUACUUUAUCUGUCUUGAUGAUUCCAUUUUUGCGGAGAUUGUGGAUUAGCUCCGAGUGGCUGGCCAACAGAGGAUUGAGCAUCA
B5: chr11:69548761:69548762:-_ENSMUSG00000005198_ENSMUST00000058470|mus_hu|FALSE|FALSE (ssRNA)
RNA: GGGAGUUCUACAGUCCGACGAUCAGAUGUCGGUGAGUAGCUGGGAGACGUUGGCGAGUAGCUAGGGGAAGUGGGCGAGUAGCUAGGGGAAGUGGGUGAGUAGCUGGGAGAGGUGGGCGAGUAGCUGGGAGAGGUGGGCGAGUACAACAGAGGAUUGAGCAUCA
B6: chr18:47008509:47008510:-_ENSG00000177576_ENST00000318240|hu_mus|FALSE|FALSE (ssRNA)
RNA: GGGAGUUCUACAGUCCGACGAUCGCUCACACGGACCUUCUAUUUGUUCAUAUCAGUAAAUUGGAAUAAUAGAAAUGAAAGCUACUUUAAUGAAAAAGAAACUCAGGGGUGAGAUCAUUAAAUAUAACUACUGGAAUUUUAAAUCAACAGAGGAUUGAGCAUCA

Each binder was assayed against T1, UNK ZnF1-3 (assay: nsRBNS (natural sequence RNA bind-n-seq); RBNS binding buffer (assumed for nsRBNS): 25 mM Tris pH 7.5, 150 mM KCl, 3 mM MgCl2, 0.01% Triton X-100, 500 ug/ml BSA, 20 U/ml SUPERase-In, 4 C; UNK is unkempt and MSI1 is Musashi-1; names of the RNAs are library labels; protein concentration not given here; high values mean tight binding).

Row | Binder | binding signal
1 | B1 | 0.666 enrichment R
2 | B2 | 2.03 enrichment R
3 | B3 | 0.953 enrichment R
4 | B4 | 0.705 enrichment R
5 | B5 | 1.44 enrichment R
6 | B6 | 2.82 enrichment R
